Values marked as one replicate rest on one cluster of the flow cell; about a third of the high ones do not repeat.
Test system: ATP
Test: switch fluorescence ratio, 500 uM ATP over buffer (Cy3 cluster intensity, sum of 5 cycles each) (fold (ratio)); higher = stronger signal-on switching upon ATP binding; sequences stand for … in TCGTCGGCAGCGTCAGATGTGTATAAGAGACAGTTTTTTTTTTTTTTTTTTTTTTTTT…TC
Conditions: aptamer strand: ATP DNA aptamer (quencher-CACCTGGGGGAGTATTGCGGAGGAAGG + anchor), 100 nM annealed; ATP concentration: 500 uM; one replicate
How it was run: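 Exposure to 500 uM ATP lasted 15 min at 22 °C before imaging, and a selection-buffer image was taken beforehand, for Cy3-labelled switching-strand clusters on a modified Illumina MiSeq flow-cell annealed to 100 nM quencher-labelled ATP aptamer. Five buffer/ATP cycles were run with NaOH stripping and re-annealing between them. The fluorescence ratio per cluster is summed target-cycle over summed buffer-cycle Cy3 intensity, averaged per switch-domain sequence. Clusters outside 100-1000 RFU were excluded.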

AATTTTCTTT
switch fluorescence ratio: 1.01

GATTTGTGGC
switch fluorescence ratio: 1

GGGTTACCCG
switch fluorescence ratio: 0.988

GATCCACTGT
switch fluorescence ratio: 1.09

CGTTATGTAA
switch fluorescence ratio: 1

TAAAGTTGTC
switch fluorescence ratio: 1.01

TCAAGAAAAC
switch fluorescence ratio: 1.01

ATGTAGTTTC
switch fluorescence ratio: 0.972

TAGTTGGTGC
switch fluorescence ratio: 1.08

ACTATGATTC
switch fluorescence ratio: 1.06

TTCCGGCCAG
switch fluorescence ratio: 1.03

GGGTTACGTC
switch fluorescence ratio: 1.01

GGGGCTACCT
switch fluorescence ratio: 1.05

GGCTCCGCGC
switch fluorescence ratio: 5.49

CTATTTGTAA
switch fluorescence ratio: 1.03

CGGAGCTATT
switch fluorescence ratio: 3.56

TTAGGTATTT
switch fluorescence ratio: 1.02

GGTGGAAGTC
switch fluorescence ratio: 0.962

GCTCAATAGA
switch fluorescence ratio: 1.01

GACTTATATT
switch fluorescence ratio: 0.992

CATTTATCC
switch fluorescence ratio: 1.03

GCTGTCAACA
switch fluorescence ratio: 1

TAGTTGGCT
switch fluorescence ratio: 0.982

TTTTTAGT
switch fluorescence ratio: 0.946

ACGACTGGGT
switch fluorescence ratio: 1

GACTCCCGAT
switch fluorescence ratio: 3.39

CTTCACTCTT
switch fluorescence ratio: 1.02

CTAAGAGCTG
switch fluorescence ratio: 0.942

CGGGTGACAT
switch fluorescence ratio: 1

CCTCTTATGG
switch fluorescence ratio: 1.09

GCCGCTCCGC
switch fluorescence ratio: 1.62

ATTAAGTGCG
switch fluorescence ratio: 0.985

GTTCGTTTGA
switch fluorescence ratio: 0.941

GATCTTTTAT
switch fluorescence ratio: 0.99

CACATTTT
switch fluorescence ratio: 0.924

TTCCAGGGGT
switch fluorescence ratio: 5.28

TAAATATAG
switch fluorescence ratio: 1.03

GAGGGTGCCT
switch fluorescence ratio: 1.03

GGCGAAACTG
switch fluorescence ratio: 1.52

CGGCACTGGA
switch fluorescence ratio: 1.06

TTGCCGCATT
switch fluorescence ratio: 1.06

TCACAGCAG
switch fluorescence ratio: 1.1

GCGCTCCCTT
switch fluorescence ratio: 1.16

GAGTCTTTAG
switch fluorescence ratio: 0.989

AACCGCGTGG
switch fluorescence ratio: 0.97

AGTGCCGTAG
switch fluorescence ratio: 0.967

CGGTATCGGT
switch fluorescence ratio: 0.949

AAACGTATTG
switch fluorescence ratio: 1.07

CACAAAATTT
switch fluorescence ratio: 1.1

GATTTAACGT
switch fluorescence ratio: 0.986

CGGTTATAGA
switch fluorescence ratio: 1

ACCGGGTTAC
switch fluorescence ratio: 1.1

CTGGAACAGA
switch fluorescence ratio: 0.972

AGGATAACCT
switch fluorescence ratio: 1.52

CGATCACGCT
switch fluorescence ratio: 1.07

AATTCTTCCC
switch fluorescence ratio: 1.1

CTGAAGCCAA
switch fluorescence ratio: 5.32

AGAAGAATTC
switch fluorescence ratio: 1.03

TGAGCTAGAG
switch fluorescence ratio: 1.03

CTTGGGATAT
switch fluorescence ratio: 1.03

ACGGTATGTT
switch fluorescence ratio: 1.11

CAAGGAAAAA
switch fluorescence ratio: 0.976

CATTATGAAC
switch fluorescence ratio: 1.04

AGCGATCAC
switch fluorescence ratio: 3.13

CGCGTGTGGG
switch fluorescence ratio: 1.1

CGCGCTGTTA
switch fluorescence ratio: 1.02

TTGGTACCCA
switch fluorescence ratio: 1.01

CCCGGGTTGC
switch fluorescence ratio: 1.24

TAGGCTAACT
switch fluorescence ratio: 1.02

ACAGTGAGCT
switch fluorescence ratio: 0.975

GTTCAAAACA
switch fluorescence ratio: 0.985

GAATTTCTTA
switch fluorescence ratio: 0.967

CGCCTGAAGC
switch fluorescence ratio: 1.01

ATACAGGCGT
switch fluorescence ratio: 1.03

ATTGACGGCC
switch fluorescence ratio: 1.05

TTTCCTTACA
switch fluorescence ratio: 1.07

GGTCAAATCC
switch fluorescence ratio: 0.994

CCGTCCTGGT
switch fluorescence ratio: 0.995

TAGTTGGTAA
switch fluorescence ratio: 1.01

AGAAATGCGT
switch fluorescence ratio: 1.04

TCGATATTTT
switch fluorescence ratio: 0.976

TCACCTAACA
switch fluorescence ratio: 1.12

CGCATTGTAA
switch fluorescence ratio: 1.1

TAGGATATAA
switch fluorescence ratio: 0.97

TGGGCTCTAG
switch fluorescence ratio: 0.979

TTCGTGAACT
switch fluorescence ratio: 0.978

CACCTAAAGG
switch fluorescence ratio: 1.03

CAAGGCATGA
switch fluorescence ratio: 1.05

GGTGATCCAC
switch fluorescence ratio: 0.994

GCCAGCCGCA
switch fluorescence ratio: 1.08

TGAACAGAT
switch fluorescence ratio: 1.01

AATAACATCG
switch fluorescence ratio: 0.975

TTCGCTAGTT
switch fluorescence ratio: 0.991

CCAGTGGTGT
switch fluorescence ratio: 1.22

TTATAAAGGG
switch fluorescence ratio: 1.02

ATTTTCATCG
switch fluorescence ratio: 1.03

ACTGGCTGCC
switch fluorescence ratio: 1.03

GAAAAGGTAT
switch fluorescence ratio: 0.964

TACATGGCCG
switch fluorescence ratio: 1.2

TAAGGCAGGT
switch fluorescence ratio: 0.978

CACTACGCTT
switch fluorescence ratio: 2.44

GAAAAGAGCT
switch fluorescence ratio: 0.982

TGCTATTTGG
switch fluorescence ratio: 0.98

GAAAATCTTG
switch fluorescence ratio: 1.1

TGATTACGGG
switch fluorescence ratio: 1.06

GCAGAGAATT
switch fluorescence ratio: 0.97

ATTACATACA
switch fluorescence ratio: 1.39

ACATATTAGT
switch fluorescence ratio: 1.01

TCGTTTTCCG
switch fluorescence ratio: 0.956

GGGACCTAGA
switch fluorescence ratio: 0.996

GTGCCAAGGA
switch fluorescence ratio: 0.995

CAACTGCAAC
switch fluorescence ratio: 2.66

CCCATAAACC
switch fluorescence ratio: 1.01

CGTACCCCAC
switch fluorescence ratio: 1.12

GCATCGCCTT
switch fluorescence ratio: 0.999

TATATCATGA
switch fluorescence ratio: 1.02

TTCTGTGAGT
switch fluorescence ratio: 1.04

CATAGCAAGT
switch fluorescence ratio: 1.77

AGGTTTCCTT
switch fluorescence ratio: 0.967

AATGAAAGCA
switch fluorescence ratio: 1.01

CGTAGCCCCG
switch fluorescence ratio: 0.917

CTTATTTGGA
switch fluorescence ratio: 0.996

ACGATGCTA
switch fluorescence ratio: 1.56

CATCTCAACT
switch fluorescence ratio: 1.01

GGAGCTATAA
switch fluorescence ratio: 3.22

GCGGGATTTT
switch fluorescence ratio: 0.948

AAGAGCACAC
switch fluorescence ratio: 1.11

GCGACTCTGG
switch fluorescence ratio: 0.987

TATAGCGGGT
switch fluorescence ratio: 1.05

GTGGGAACGA
switch fluorescence ratio: 0.977

GCGGTAGC
switch fluorescence ratio: 1.02

TGTCATAGAC
switch fluorescence ratio: 1.04

ACATGATTG
switch fluorescence ratio: 1.03

GAGGAAATGA
switch fluorescence ratio: 0.985

AATCCGTGCG
switch fluorescence ratio: 0.995

CTTGGTTGGA
switch fluorescence ratio: 0.978

AACCGGGTAA
switch fluorescence ratio: 1.04

GGCGTTAAGC
switch fluorescence ratio: 0.985

GACTTACGGA
switch fluorescence ratio: 1.49

GTGGGTTATG
switch fluorescence ratio: 0.985

ACTCAAGGAC
switch fluorescence ratio: 1.28

AATGGAGAGC
switch fluorescence ratio: 1

GAGAAACCAT
switch fluorescence ratio: 0.944

TGGTCACTTC
switch fluorescence ratio: 1.01

AAACGGTAG
switch fluorescence ratio: 1.04

TCCATGTCAA
switch fluorescence ratio: 1.08

ATCAATGCCT
switch fluorescence ratio: 1.05

CCCCGAGCGT
switch fluorescence ratio: 1.67

TGGAAAGTAT
switch fluorescence ratio: 1.01

CGCACCCGGT
switch fluorescence ratio: 1.53

ATTCCAGCAT
switch fluorescence ratio: 1.2

TCCTGCCGAA
switch fluorescence ratio: 1.35

TCCCTGATTC
switch fluorescence ratio: 1.04

ATAGTTAACC
switch fluorescence ratio: 1.06

GATCGAAAA
switch fluorescence ratio: 1.07

TTGTGGAACA
switch fluorescence ratio: 0.995

GTATAGCAAC
switch fluorescence ratio: 1.09

ACGGGCTGAG
switch fluorescence ratio: 0.999

ATTGGAGTGT
switch fluorescence ratio: 0.949

AAAATTGTCG
switch fluorescence ratio: 1.04

TCTAGAAATT
switch fluorescence ratio: 0.982

GCAATTTTTA
switch fluorescence ratio: 1.01

CCCGTATCGA
switch fluorescence ratio: 0.994

CTTTTAAGGG
switch fluorescence ratio: 0.979

GGCCCAGCAG
switch fluorescence ratio: 1.08

GACGGAGATC
switch fluorescence ratio: 0.986

CTTAAGCTC
switch fluorescence ratio: 1

GTCGGTCGCG
switch fluorescence ratio: 1.02

GAACGCGCAT
switch fluorescence ratio: 1.02

AAAGCAAACG
switch fluorescence ratio: 1.04

CTGCTAAAAG
switch fluorescence ratio: 1.01

TTTATTTAGT
switch fluorescence ratio: 1.01

ATAGGTCTCC
switch fluorescence ratio: 1.03

TTGCCCCGCT
switch fluorescence ratio: 1.46

AAGAGAAGGG
switch fluorescence ratio: 0.942

ATGATAATAG
switch fluorescence ratio: 0.981

CATATATTTA
switch fluorescence ratio: 1.06

CTCAGAAGGC
switch fluorescence ratio: 1.1

CGCTGTATTA
switch fluorescence ratio: 0.999

GGAAGTCGCT
switch fluorescence ratio: 0.95

AATTTCCAGA
switch fluorescence ratio: 0.955

GGGGACACTG
switch fluorescence ratio: 1.1

GCCATGGAAC
switch fluorescence ratio: 1.02

AGGCTAATTG
switch fluorescence ratio: 0.999

ATGAAAATCG
switch fluorescence ratio: 1.01

CGAGCTCTAA
switch fluorescence ratio: 1.04

GAAGCGCCTC
switch fluorescence ratio: 1.05

ATCGGCACTG
switch fluorescence ratio: 1.05

TGATTAGGCT
switch fluorescence ratio: 0.993

TCTATCGA
switch fluorescence ratio: 0.958

AGGGGAAATT
switch fluorescence ratio: 1

GTCAGATTAT
switch fluorescence ratio: 0.966

TTACAGGAGT
switch fluorescence ratio: 0.965

CTACATAAGG
switch fluorescence ratio: 1.06

GCGTTCGGA
switch fluorescence ratio: 1.03

GGTTTAACTA
switch fluorescence ratio: 0.965

CTCATCCTGA
switch fluorescence ratio: 1.07

ACTAGAAGCT
switch fluorescence ratio: 0.999

ACGGGAACGC
switch fluorescence ratio: 1.05

GAATTAAAGG
switch fluorescence ratio: 0.987

AACACACTGG
switch fluorescence ratio: 1.28

From the supplement of paper PMC10126150
